# Measured values as given in the supplement of paper PMC8728848.
# The other results are listed elsewhere or left out.
# Key:
# Experiment in all cases: glycan array binding signal (z-score within array); higher = stronger binding
# Details in all cases: glycan notation: IUPAC condensed, linker removed
# [1] = target: Neu5Ac(a2-3)Gal(b1-4)GlcNAc(b1-3)[Neu5Ac(a2-3)Gal(b1-4)GlcNAc(b1-6)]GalNAc
# Outline: (§1)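 Glycan array data came from 3228 arrays in the Consortium for Functional Glycomics database, and only arrays with an available protein sequence were kept. Glycan names were put into IUPAC-condensed notation, and columns mapping to the same glycan were averaged. The binding signal is a within-array Z-score, averaged across arrays of one protein sequence run at different concentrations or buffers and across linkers. A negative Z-score can be read as non-binding.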
# [2] = target: Neu5Ac(a2-3)Gal(b1-4)GlcNAc(b1-6)GalNAc
# Outline: as §1
# [3] = target: Neu5Ac(a2-3)Gal(b1-4)GlcNAc(b1-6)[Gal(b1-3)]GalNAc
# Outline: as §1
# [4] = target: Neu5Ac(a2-3)Gal(b1-4)GlcNAc(b1-6)[Neu5Ac(a2-3)Gal(b1-3)]GalNAc
# Outline: as §1
# [5] = target: Neu5Ac(a2-3)Gal(b1-4)GlcNAc6S
# Outline: as §1
# [6] = target: Neu5Ac(a2-3)Gal(b1-4)[Fuc(a1-3)]GlcNAc
# Outline: as §1
# [7] = target: Neu5Ac(a2-3)Gal(b1-4)[Fuc(a1-3)]GlcNAc(b1-2)Man
# Outline: as §1
# [8] = target: Neu5Ac(a2-3)Gal(b1-4)[Fuc(a1-3)]GlcNAc(b1-3)Gal
# Outline: as §1
# [9] = target: Neu5Ac(a2-3)Gal(b1-4)[Fuc(a1-3)]GlcNAc(b1-3)Gal(b1-4)GlcNAc
# Outline: as §1
# [10] = target: Neu5Ac(a2-3)Gal(b1-4)[Fuc(a1-3)]GlcNAc(b1-3)Gal(b1-4)[Fuc(a1-3)]GlcNAc(b1-3)Gal(b1-4)[Fuc(a1-3)]GlcNAc
# Outline: as §1
# [11] = target: Neu5Ac(a2-3)Gal(b1-4)[Fuc(a1-3)]GlcNAc(b1-3)GalNAc
# Outline: as §1
# [12] = target: Neu5Ac(a2-3)Gal(b1-4)[Fuc(a1-3)]GlcNAc(b1-6)[Gal(b1-3)]GalNAc
# Outline: as §1
# [13] = target: Neu5Ac(a2-3)Gal(b1-4)[Fuc(a1-3)]GlcNAc(b1-6)[Neu5Ac(a2-3)Gal(b1-3)]GalNAc
# Outline: as §1
# [14] = target: Neu5Ac(a2-3)Gal(b1-4)[Fuc(a1-3)]GlcNAc6S
# Outline: as §1
# [15] = target: Neu5Ac(a2-3)Gal6S(b1-4)GlcNAc
# Outline: as §1
# [16] = target: Neu5Ac(a2-3)Gal6S(b1-4)[Fuc(a1-3)]GlcNAc
# Outline: as §1
# [17] = target: Neu5Ac(a2-3)GalNAc
# Outline: as §1
# [18] = target: Neu5Ac(a2-3)GalNAc(b1-4)GlcNAc
# Outline: as §1
# [19] = target: Neu5Ac(a2-3)[GalNAc(b1-4)]Gal(b1-4)Glc
# Outline: as §1
# [20] = target: Neu5Ac(a2-3)[GalNAc(b1-4)]Gal(b1-4)GlcNAc
# Outline: as §1
# [21] = target: Neu5Ac(a2-3)[GalNAc(b1-4)]Gal(b1-4)GlcNAc(b1-3)GalNAc
# Outline: as §1
# [22] = target: Neu5Ac(a2-3)[Neu5Ac(a2-6)]GalNAc
# Outline: as §1
# [23] = target: Neu5Ac(a2-6)Gal
# Outline: as §1
# [24] = target: Neu5Ac(a2-6)Gal(b1-3)GlcNAc(b1-3)[Gal(b1-4)GlcNAc(b1-6)]Gal(b1-4)Glc
# Outline: as §1
# [25] = target: Neu5Ac(a2-6)Gal(b1-4)Glc
# Outline: as §1
# [26] = target: Neu5Ac(a2-6)Gal(b1-4)GlcNAc
# Outline: as §1
# [27] = target: Neu5Ac(a2-6)Gal(b1-4)GlcNAc(b1-2)Man
# Outline: as §1
# [28] = target: Neu5Ac(a2-6)Gal(b1-4)GlcNAc(b1-2)Man(a1-3)Man(b1-4)GlcNAc(b1-4)GlcNAc
# Outline: as §1
# [29] = target: Neu5Ac(a2-6)Gal(b1-4)GlcNAc(b1-2)Man(a1-3)[Gal(b1-4)GlcNAc(b1-2)Man(a1-6)]Man(b1-4)GlcNAc(b1-4)GlcNAc
# Outline: as §1
# [30] = target: Neu5Ac(a2-6)Gal(b1-4)GlcNAc(b1-2)Man(a1-3)[GlcNAc(b1-2)Man(a1-6)]Man(b1-4)GlcNAc(b1-4)GlcNAc
# Outline: as §1
# [31] = target: Neu5Ac(a2-6)Gal(b1-4)GlcNAc(b1-2)Man(a1-3)[GlcNAc(b1-4)][Neu5Ac(a2-6)Gal(b1-4)GlcNAc(b1-2)Man(a1-6)]Man(b1-4)GlcNAc(b1-4)GlcNAc
# Outline: as §1
# [32] = target: Neu5Ac(a2-6)Gal(b1-4)GlcNAc(b1-2)Man(a1-3)[Man(a1-6)]Man(b1-4)GlcNAc(b1-4)GlcNAc
# Outline: as §1
# [33] = target: Neu5Ac(a2-6)Gal(b1-4)GlcNAc(b1-2)Man(a1-3)[Neu5Ac(a2-3)Gal(b1-4)GlcNAc(b1-2)Man(a1-6)]Man(b1-4)GlcNAc(b1-4)GlcNAc
# Outline: as §1
# [34] = target: Neu5Ac(a2-6)Gal(b1-4)GlcNAc(b1-2)Man(a1-3)[Neu5Ac(a2-6)Gal(b1-4)GlcNAc(b1-2)Man(a1-6)]Man(b1-4)GlcNAc(b1-4)GlcNAc
# Outline: as §1
# [35] = target: Neu5Ac(a2-6)Gal(b1-4)GlcNAc(b1-2)Man(a1-3)[Neu5Ac(a2-6)Gal(b1-4)GlcNAc(b1-2)Man(a1-6)]Man(b1-4)GlcNAc(b1-4)[Fuc(a1-6)]GlcNAc
# Outline: as §1
# [36] = target: Neu5Ac(a2-6)Gal(b1-4)GlcNAc(b1-2)Man(a1-6)Man(b1-4)GlcNAc(b1-4)GlcNAc
# Outline: as §1
# [37] = target: Neu5Ac(a2-6)Gal(b1-4)GlcNAc(b1-2)Man(a1-6)[Gal(b1-4)GlcNAc(b1-2)Man(a1-3)]Man(b1-4)GlcNAc(b1-4)GlcNAc
# Outline: as §1
# [38] = target: Neu5Ac(a2-6)Gal(b1-4)GlcNAc(b1-2)Man(a1-6)[GlcNAc(b1-2)Man(a1-3)]Man(b1-4)GlcNAc(b1-4)GlcNAc
# Outline: as §1
# [39] = target: Neu5Ac(a2-6)Gal(b1-4)GlcNAc(b1-2)Man(a1-6)[Man(a1-3)]Man(b1-4)GlcNAc(b1-4)GlcNAc
# Outline: as §1
# [40] = target: Neu5Ac(a2-6)Gal(b1-4)GlcNAc(b1-2)[Neu5Ac(a2-6)Gal(b1-4)GlcNAc(b1-4)]Man(a1-3)[GlcNAc(b1-4)][Neu5Ac(a2-6)Gal(b1-4)GlcNAc(b1-2)[Neu5Ac(a2-6)Gal(b1-4)GlcNAc(b1-6)]Man(a1-6)]Man(b1-4)GlcNAc(b1-4)GlcNAc
# Outline: as §1
# [41] = target: Neu5Ac(a2-6)Gal(b1-4)GlcNAc(b1-2)[Neu5Ac(a2-6)Gal(b1-4)GlcNAc(b1-4)]Man(a1-3)[GlcNAc(b1-4)][Neu5Ac(a2-6)Gal(b1-4)GlcNAc(b1-4)Man(a1-6)]Man(b1-4)GlcNAc(b1-4)GlcNAc
# Outline: as §1
# [42] = target: Neu5Ac(a2-6)Gal(b1-4)GlcNAc(b1-2)[Neu5Ac(a2-6)Gal(b1-4)GlcNAc(b1-6)]Man(a1-6)[Neu5Ac(a2-6)Gal(b1-4)GlcNAc(b1-2)Man(a1-3)][GlcNAc(b1-4)]Man(b1-4)GlcNAc(b1-4)GlcNAc
# Outline: as §1
# [43] = target: Neu5Ac(a2-6)Gal(b1-4)GlcNAc(b1-3)Gal(b1-3)GlcNAc
# Outline: as §1
# [44] = target: Neu5Ac(a2-6)Gal(b1-4)GlcNAc(b1-3)Gal(b1-4)GlcNAc
# Outline: as §1
# [45] = target: Neu5Ac(a2-6)Gal(b1-4)GlcNAc(b1-3)Gal(b1-4)GlcNAc(b1-2)Man(a1-3)[Neu5Ac(a2-6)Gal(b1-4)GlcNAc(b1-3)Gal(b1-4)GlcNAc(b1-2)Man(a1-6)]GalNAc
# Outline: as §1
# [46] = target: Neu5Ac(a2-6)Gal(b1-4)GlcNAc(b1-3)Gal(b1-4)GlcNAc(b1-3)Gal(b1-4)GlcNAc
# Outline: as §1
binder,measurement,setting,value
"SRA-1 (Homo sapiens), P21757 (protein) MEQWDHFHNQQEDTDSCSESVKFDARSMTALLPPNPKNSPSLQEKLKSFKAALIALYLLVFAVLIPLIGIVAAQLLKWETKNCSVSSTNANDITQSLTGKGNDSEEEMRFQEVFMEHMSNMEKRIQHILDMEANLMDTEHFQNFSMTTDQRFNDILLQLSTLFSSVQGHGNAIDEISKSLISLNTTLLDLQLNIENLNGKIQENTFKQQEEISKLEERVYNVSAEIMAMKEEQVHLEQEIKGEVKVLNNITNDLRLKDWEHSQTLRNITLIQGPPGPPGEKGDRGPTGESGPRGFPGPIGPPGLKGDRGAIGFPGSRGLPGYAGRPGNSGPKGQKGEKGSGNTLTPFTKVRLVGGSGPHEGRVEILHSGQWGTICDDRWEVRVGQVVCRSLGYPGVQAVHKAAHFGQGTGPIWLNEVFCFGRESSIEECKIRQWGTRACSHSEDAGVTCTL",glycan array binding signal (z-score),[1],-0.523
same,glycan array binding signal (z-score),[2],0.163
same,glycan array binding signal (z-score),[3],-0.37
same,glycan array binding signal (z-score),[4],-0.579
same,glycan array binding signal (z-score),[5],0.181
same,glycan array binding signal (z-score),[6],-0.069
same,glycan array binding signal (z-score),[7],-0.226
same,glycan array binding signal (z-score),[8],-0.16
same,glycan array binding signal (z-score),[9],0.533
same,glycan array binding signal (z-score),[10],0.725
same,glycan array binding signal (z-score),[11],1.05
same,glycan array binding signal (z-score),[12],1.18
same,glycan array binding signal (z-score),[13],-0.114
same,glycan array binding signal (z-score),[14],-0.154
same,glycan array binding signal (z-score),[15],0.022
same,glycan array binding signal (z-score),[16],-0.502
same,glycan array binding signal (z-score),[17],-0.364
same,glycan array binding signal (z-score),[18],-0.329
same,glycan array binding signal (z-score),[19],-0.214
same,glycan array binding signal (z-score),[20],-0.507
same,glycan array binding signal (z-score),[21],0.563
same,glycan array binding signal (z-score),[22],-0.002
same,glycan array binding signal (z-score),[23],-0.353
same,glycan array binding signal (z-score),[24],-0.061
same,glycan array binding signal (z-score),[25],0.128
same,glycan array binding signal (z-score),[26],0.017
same,glycan array binding signal (z-score),[27],-0.37
same,glycan array binding signal (z-score),[28],-0.097
same,glycan array binding signal (z-score),[29],-0.016
same,glycan array binding signal (z-score),[30],-0.307
same,glycan array binding signal (z-score),[31],-0.341
same,glycan array binding signal (z-score),[32],-0.137
same,glycan array binding signal (z-score),[33],0.472
same,glycan array binding signal (z-score),[34],0.143
same,glycan array binding signal (z-score),[35],0.228
same,glycan array binding signal (z-score),[36],0.243
same,glycan array binding signal (z-score),[37],-0.025
same,glycan array binding signal (z-score),[38],-0.109
same,glycan array binding signal (z-score),[39],-0.336
same,glycan array binding signal (z-score),[40],-0.097
same,glycan array binding signal (z-score),[41],-0.344
same,glycan array binding signal (z-score),[42],-0.404
same,glycan array binding signal (z-score),[43],-0.066
same,glycan array binding signal (z-score),[44],-0.257
same,glycan array binding signal (z-score),[45],0.355
same,glycan array binding signal (z-score),[46],0.218
